Consider 58 compounds from paper PMC4336329 (PLoS ONE, 2015).

Molecules are shown by their SMILES. The campaign covered roughly 310,000 compounds. About 14,000 (4.5%) showed an effect of 50% or more. Effects have a minus sign here. The list shows a part of the results.
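Note: peak tail current of the secondary pulse compared with the same well before compound.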

For the assay, the target named is human ether-à-go-go-related gene (hERG) potassium channel (human, UniProt Q12809). Nature of the assay: primary screen, population patch clamp on CHO cells stably expressing hERG.
human ether-à-go-go-related gene (hERG) potassium channel, sequence (Q12809 whole entry, looked up): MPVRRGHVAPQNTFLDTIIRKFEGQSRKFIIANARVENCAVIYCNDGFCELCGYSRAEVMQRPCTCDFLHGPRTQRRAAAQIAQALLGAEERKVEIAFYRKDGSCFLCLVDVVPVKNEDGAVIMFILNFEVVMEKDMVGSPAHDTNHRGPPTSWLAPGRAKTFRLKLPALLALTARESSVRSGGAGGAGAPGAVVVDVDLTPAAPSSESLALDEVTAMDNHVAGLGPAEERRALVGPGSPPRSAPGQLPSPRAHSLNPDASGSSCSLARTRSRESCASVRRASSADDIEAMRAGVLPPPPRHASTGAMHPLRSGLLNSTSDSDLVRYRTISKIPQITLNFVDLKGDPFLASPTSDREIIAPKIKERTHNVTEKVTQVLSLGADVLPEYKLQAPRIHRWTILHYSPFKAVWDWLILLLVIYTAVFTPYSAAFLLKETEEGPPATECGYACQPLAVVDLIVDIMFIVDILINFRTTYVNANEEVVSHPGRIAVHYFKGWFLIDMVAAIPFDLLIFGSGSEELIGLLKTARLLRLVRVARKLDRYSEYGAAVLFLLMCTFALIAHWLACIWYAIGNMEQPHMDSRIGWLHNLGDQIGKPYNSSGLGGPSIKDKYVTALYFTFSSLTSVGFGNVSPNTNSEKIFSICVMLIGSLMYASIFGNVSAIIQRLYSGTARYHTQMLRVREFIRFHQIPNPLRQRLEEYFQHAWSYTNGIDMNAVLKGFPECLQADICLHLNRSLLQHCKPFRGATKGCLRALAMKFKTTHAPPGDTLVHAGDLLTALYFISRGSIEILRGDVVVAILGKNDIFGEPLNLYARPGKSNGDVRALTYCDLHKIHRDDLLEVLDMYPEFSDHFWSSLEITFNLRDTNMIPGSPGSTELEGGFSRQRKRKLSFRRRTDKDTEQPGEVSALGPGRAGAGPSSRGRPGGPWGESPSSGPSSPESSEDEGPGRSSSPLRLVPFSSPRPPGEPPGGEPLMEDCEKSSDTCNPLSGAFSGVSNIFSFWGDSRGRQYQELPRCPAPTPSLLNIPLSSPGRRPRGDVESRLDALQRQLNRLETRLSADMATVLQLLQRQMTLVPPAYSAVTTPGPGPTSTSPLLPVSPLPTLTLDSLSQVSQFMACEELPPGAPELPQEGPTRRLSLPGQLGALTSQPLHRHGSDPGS
Take `O=C(CSc1ncnc2c1nnn2Cc1ccccc1)NC1CCCCC1`: the “hERG current change (%, negative = inhibition) at 10uM” value is recorded as 2.09%.

Turning to `COCCn1nnnc1C(C(C)C)N1CCOCC1.Cl` (stereo not shown), the “hERG current change (%, negative = inhibition) at 10uM” value is 0.112%.

Take `Cc1ccccc1NC(=O)NC(N)=O`: the “hERG current change (%, negative = inhibition) at 10uM” value turned out to be 1.83%.

`CCOc1cc2c(Cl)ncnc2c(OCC)c1OCC`: the “hERG current change (%, negative = inhibition) at 10uM” value is listed as 23.3%.

For `CC1(C)CC(=O)C=C(c2ccc(Cl)c(C(F)(F)F)c2)C1`, the “hERG current change (%, negative = inhibition) at 10uM” value was -8.31%.

Turning to `O=C(CCc1nnc(CCCc2ccccc2)o1)NCCc1ccccc1`, the “hERG current change (%, negative = inhibition) at 10uM” value was -12%.

`Cc1ccc(-c2csc(NCCn3c(C(F)(F)F)nc4ccccc43)n2)cc1`: the “hERG current change (%, negative = inhibition) at 10uM” value is reported as 5.75%.

`CC(=O)OC(C)[C@H]1CC[C@H]2[C@@H]3CC[C@H]4C[C@@H](OC(C)=O)CC[C@]4(C)C3=CC[C@]12C` (stereo partly shown): the “hERG current change (%, negative = inhibition) at 10uM” value is 13.2%.

As for `O=C1OC(c2ccc(Cl)cc2)=N/C1=C\C=C\c1ccco1`, the “hERG current change (%, negative = inhibition) at 10uM” value stood at 35.2%.

Regarding `COc1ccc(N(CC(=O)NCc2cccnc2)S(=O)(=O)c2ccccc2[N+](=O)[O-])c(OC)c1`, the “hERG current change (%, negative = inhibition) at 10uM” value is listed as -17%.

On to `Cc1snc2sc(C(=O)c3ccc(Br)cc3)c(N)c12`, for which the “hERG current change (%, negative = inhibition) at 10uM” value was found to be 0.295%.

On to `OCCC1CN(Cc2nc(-c3ccccc3)cs2)CCN1C1CCCC1` (stereo not shown), for which the “hERG current change (%, negative = inhibition) at 10uM” value is on record as -66.4%.

Regarding `CC(c1ccco1)N(C(=O)c1ccc(Cl)s1)c1ccccn1` (stereo not shown), the “hERG current change (%, negative = inhibition) at 10uM” value is given as -4.54%.

In the case of `CC(=O)c1ccc(NC(=O)N2CCN(c3ccc(C)cc3)C(C)C2)cc1` (stereo not shown), the “hERG current change (%, negative = inhibition) at 10uM” value is -19.6%.

As for `CC(On1nnc2ccc(S(=O)(=O)N3CCOCC3)cc21)C(=O)Nc1ccccc1F` (stereo not shown), the “hERG current change (%, negative = inhibition) at 10uM” value is listed as -8.2%.

For `CCCCNC(=O)C1CC(=O)N(C2CCCC2)C1` (stereo not shown), the “hERG current change (%, negative = inhibition) at 10uM” value was found to be 12.3%.

As to `Cc1ccc(S(=O)(=O)NCC(=O)Nc2ccc(C(F)(F)F)cc2)cc1`, the “hERG current change (%, negative = inhibition) at 10uM” value is listed as 1.03%.

As for `CC(C)(C)NC(=O)Nc1ccccc1C(N)=O`, the “hERG current change (%, negative = inhibition) at 10uM” value was 1.01%.

With `CCN1CCN(CCNC(=O)c2ccc(/C=C3\Sc4ccccc4N(Cc4ccccc4F)C3=O)cc2)CC1`, the “hERG current change (%, negative = inhibition) at 10uM” value was -37.9%.

As to `COc1cc2ccccc2cc1C(=O)Nc1cc(C)ccn1`, the “hERG current change (%, negative = inhibition) at 10uM” value is reported as 14.6%.

As to `COc1ccc(C(C)NC(=O)C2C(=O)NC3(C)CC2c2ccccc2O3)cc1` (stereo not shown), the “hERG current change (%, negative = inhibition) at 10uM” value is -2.18%.

On to `Cc1cc(=O)n2[nH]cc(-c3ccccc3)c2n1`, for which the “hERG current change (%, negative = inhibition) at 10uM” value worked out at 12%.

In the case of `CC(C)C(CCNCc1ccccn1)c1ccc(Cl)cc1` (stereo not shown), the “hERG current change (%, negative = inhibition) at 10uM” value is -41.6%.

On to `N#Cc1cnn(-c2cccc(Cl)c2)c1-n1cccc1`, for which the “hERG current change (%, negative = inhibition) at 10uM” value is listed as -13.8%.

On to `CC(C)c1ccc(S(=O)(=O)N2CCN(C(=O)CN3C(=O)NC4(CCCC4)C3=O)CC2)cc1`, for which the “hERG current change (%, negative = inhibition) at 10uM” value is given as -1.99%.

In the case of `COC(=O)CN1C(=O)C2(C(C#N)=C(N)Oc3cc(C)oc(=O)c32)c2ccccc21` (stereo not shown), the “hERG current change (%, negative = inhibition) at 10uM” value was 16.5%.

With `C=CCn1c(SCC(=O)NCc2ccc3c(c2)OCO3)nc2scc(-c3ccc(F)cc3)c2c1=O`, the “hERG current change (%, negative = inhibition) at 10uM” value came to 1.63%.

As to `CCOC(=O)C(CCCOc1ccc(C(C)CC)cc1)C(=O)OCC` (stereo not shown), the “hERG current change (%, negative = inhibition) at 10uM” value is recorded as 6.44%.

`CC(NC(=O)CCc1ccccc1)c1cc2c(cc1Cl)OCCO2` (stereo not shown): the “hERG current change (%, negative = inhibition) at 10uM” value is given as -3.13%.

Regarding `CCOc1cc(C#N)c(NC(=O)c2ccco2)cc1OCC`, the “hERG current change (%, negative = inhibition) at 10uM” value was -10.5%.

For `O=C(Nc1cccc(OCC(=O)N2CCOCC2)c1)C1CCCCC1`, the “hERG current change (%, negative = inhibition) at 10uM” value was 1.77%.

Consider `Cc1oc(-c2cccc(Cl)c2)nc1CS(=O)(=O)CC(=O)NCCN1CCOCC1`, for which the “hERG current change (%, negative = inhibition) at 10uM” value was -0.638%.

As to `CCOC(=O)c1cc(C(=O)Nc2ccccc2F)nn1C`, the “hERG current change (%, negative = inhibition) at 10uM” value is given as -2.22%.

Turning to `O=C1CCCN1CCC1CCN(C(=O)Nc2ccccc2)CC1`, the “hERG current change (%, negative = inhibition) at 10uM” value is -3.69%.

Consider `CC(C)CC(=O)Nc1ccccc1N1CCN(c2ccccc2)CC1`, for which the “hERG current change (%, negative = inhibition) at 10uM” value is recorded as -2.38%.

In the case of `N#C/C(=C\c1ccc(N2CCCCC2)o1)C(N)=O`, the “hERG current change (%, negative = inhibition) at 10uM” value is 7.71%.

For `c1ccc(CCN2CN=C(Nc3nc4ccccc4o3)NC2)cc1`, the “hERG current change (%, negative = inhibition) at 10uM” value is given as -6.44%.

In the case of `CCCC(=O)n1nc(-c2ccco2)nc1N`, the “hERG current change (%, negative = inhibition) at 10uM” value stood at 17%.

As for `COc1ccc(OC)c(N2C(=O)CCCC2=O)c1`, the “hERG current change (%, negative = inhibition) at 10uM” value was 18.4%.

As to `Cc1ccc(C(=O)N2CCN(C(=O)c3ccco3)CC2)cc1NC(=O)c1ccco1`, the “hERG current change (%, negative = inhibition) at 10uM” value is -44.1%.

In the case of `Cc1cc(CNC(=O)Cn2cc([N+](=O)[O-])cn2)c2ccccc2n1`, the “hERG current change (%, negative = inhibition) at 10uM” value is given as -11.5%.

As to `COC(=O)CCC(=O)Nc1ccc(NC(C)=O)cc1`, the “hERG current change (%, negative = inhibition) at 10uM” value is on record as 20.9%.

As for `CCOC(=O)c1sc(N)c(C#N)c1CSc1nnc(C2CC2)n1N`, the “hERG current change (%, negative = inhibition) at 10uM” value worked out at 1.32%.

As to `Cc1noc(C)c1COc1ccc(C(=O)Nc2ncccc2O)cc1`, the “hERG current change (%, negative = inhibition) at 10uM” value was determined as 11.5%.

For `Cc1ccc2nc(N(CCCN(C)C)C(=O)CS(=O)(=O)c3ccccc3)sc2c1.Cl`, the “hERG current change (%, negative = inhibition) at 10uM” value is listed as -22.7%.

As for `CCCOc1ccc(-c2nc(C#N)c(N3CCN(C)CC3)o2)cc1`, the “hERG current change (%, negative = inhibition) at 10uM” value is recorded as -14.4%.

For `O=S(=O)(NCc1ccccc1)NCc1ccccc1F`, the “hERG current change (%, negative = inhibition) at 10uM” value is recorded as 7.69%.

Consider `C(=C\c1ccccc1)/CSc1nnc(-c2ccncc2)n1Cc1ccco1`, for which the “hERG current change (%, negative = inhibition) at 10uM” value is -63.9%.

`COC(=O)C1=C(C)NC2=C(C1c1ccc(O)cc1)S(=O)(=O)c1ccccc12` (stereo not shown): the “hERG current change (%, negative = inhibition) at 10uM” value is given as 1.76%.

`COc1ccc(NC(=O)c2ccc3nc(-c4ccccc4)c(-c4ccccc4)nc3c2)c(OC)c1`: the “hERG current change (%, negative = inhibition) at 10uM” value was determined as 8.15%.

On to `Cc1ccnc(NC(=O)COC(=O)C2COc3ccccc3O2)n1` (stereo not shown), for which the “hERG current change (%, negative = inhibition) at 10uM” value is 9.15%.

Take `COC(=O)c1sc2cc(C(F)(F)F)cnc2c1-c1ccccn1`: the “hERG current change (%, negative = inhibition) at 10uM” value is on record as 5.64%.

In the case of `O=C(COc1cc2oc(=O)c3c(c2cc1Cl)CCC3)NCC(O)c1ccccc1` (stereo not shown), the “hERG current change (%, negative = inhibition) at 10uM” value was 21.4%.

Take `COc1ccc(Cc2nnc(SCC(=O)Nc3cc(Cl)ccc3C)[nH]c2=O)cc1`: the “hERG current change (%, negative = inhibition) at 10uM” value is -0.96%.

For `COC(=O)NCC(c1ccco1)N1CCN(c2ccc(F)cc2)CC1` (stereo not shown), the “hERG current change (%, negative = inhibition) at 10uM” value is -1.75%.

As for `CC1(c2ccccc2)NC(=O)N(N)C1=O` (stereo not shown), the “hERG current change (%, negative = inhibition) at 10uM” value is on record as 17.9%.

On to `CCCCN(CC)Cc1c(C)[nH]c2c(ccc3ccccc32)c1=O`, for which the “hERG current change (%, negative = inhibition) at 10uM” value is listed as -74.3%.

Turning to `Nc1ccc(C(=O)N/N=C2\CCCc3c2[nH]c2ccccc32)cc1`, the “hERG current change (%, negative = inhibition) at 10uM” value was determined as 16.2%.
